# Reference: the supplement of paper PMC12217912
# This is one part of the list. The full chains were built here from the parent and the listed change. Inactive controls read about 0.05.
# B1: TEV protease; numbered along this chain (parent)
# chain: MGESLFKGPRDYNPISSSICHLTNESDGHTTSLYGIGFGPFIITNKHLFRRNNGTLVVQSLHGVFKVKDTTTLQQHLVDGRDMIIIRMPKDFPPFPQKLKFREPQREERICLVTTNFQTKSMSSMVSDTSCTFPSGDGIFWKHWIQTKDGQCGSPLVSTRDGFIVGIHSASNFTNTNNYFTSVPKNFMELLTNQEAQQWVSGWRLNADSVLWGGHKVFMVKPEEPFQPVKEATQL
# Variants of: B1
# Assay: raw area under fraction-flipped curve 0-4 h after induction (AUC4h, not background-subtracted), DNA-recorder readout of cleavage of the substrate (dimensionless); higher = more cleavage of the substrate by the protease variant
# Conditions: temperature: 34 °C; time window: 0-4 h after rhamnose induction
# Method: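 In vivo DNA recorder in E. coli TOP10(DE3) ΔrhaA at 34 °C. Each TEVp single-site mutant (parent TEVp 0) is paired with a single-site variant of the 7-mer TEVs (canonical ENLYFQ|S). The substrate sits between flexible linkers in a Bxb1-sfGFP-TEVs-SsrA fusion, so cleavage stabilises Bxb1 and speeds flipping of a recombination array, read by NGS. The value is the raw area under the fraction-flipped curve over 0-4 h after rhamnose induction (AUC4h), with ≥20 reads per time point. It is not background-subtracted; inactive controls average about 0.047.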
# 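Note: Bxb1 expression induced with 0.2% (w/v) L-rhamnose at OD600 near 0.5, cultures sampled hourly, flipped fraction per protease–substrate barcode pair counted by paired-end Illumina sequencing.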
Variant,area with substrate EALYFQS,area with substrate ECLYFQS,area with substrate EDLYFQS,area with substrate EELYFQS,area with substrate EFLYFQS,area with substrate EGLYFQS,area with substrate EKLYFQS,area with substrate ELLYFQS,area with substrate EMLYFQS,area with substrate EPLYFQS,area with substrate EQLYFQS,area with substrate ERLYFQS,area with substrate ESLYFQS,area with substrate ETLYFQS,area with substrate EVLYFQS,area with substrate EWLYFQS,area with substrate EYLYFQS,area with substrate EILYFQS,area with substrate EHLYFQS
L22P,0.0485,0.0487,0.0218,0.0468,0.0328,0.0217,0.0469,0.043,0.0479,0.0442,0.0506,0.0385,0.038,0.0315,0.0595,0.043,0.0424,–,–
S130Y,0.102,0.0896,0.102,0.0845,0.0732,–,–,0.091,0.106,–,0.126,0.0855,0.0927,0.079,0.0606,–,–,0.0829,–
F226H,0.119,0.105,0.139,0.138,–,–,0.0724,–,–,0.0999,0.113,–,0.1,0.128,0.0904,0.107,–,0.0976,0.132
R106A,0.102,0.114,0.179,–,0.0906,0.107,–,0.121,–,0.093,–,0.129,0.109,0.0909,0.113,0.0827,0.0772,–,0.127
S121W,0.139,0.0993,0.156,0.125,–,0.0878,0.134,0.0965,0.133,0.113,0.13,0.0985,0.115,0.12,0.108,0.0994,–,0.0922,0.0988
F180N,0.0528,0.059,0.0508,–,–,0.0849,0.0394,–,0.0515,–,0.0545,0.0594,0.0487,–,0.0573,0.0347,0.061,0.0351,0.048
S4C,0.0934,0.0781,0.112,–,0.0936,0.0718,0.088,0.0809,0.0877,0.0851,0.0755,0.0703,0.0956,0.0997,0.0852,0.0736,0.0874,0.0689,0.0828
S60K,0.105,0.0651,0.0945,0.105,–,0.0687,0.0726,–,0.0644,0.0991,–,0.08,0.108,0.118,–,–,–,0.071,–
E3H,0.132,0.108,0.127,0.0898,–,–,0.0635,0.0744,0.121,–,0.121,0.139,0.116,0.13,0.118,–,–,–,0.0847
F65G,0.105,0.0825,0.104,0.13,0.0686,0.087,0.0924,–,0.094,0.0874,0.121,0.0854,0.0986,–,0.0575,–,0.0905,0.0951,0.0958
F65L,0.0693,0.107,0.123,0.123,–,–,0.154,0.131,0.141,0.133,0.134,–,0.109,–,0.0795,–,0.0944,–,–
I84G,0.0504,0.061,0.0872,0.0649,–,0.0759,0.0691,0.0596,–,0.064,0.0887,0.0636,0.0735,–,0.0617,–,0.0574,0.051,–
